Assay results: paper PMC4336329 (PLoS ONE, 2015)
About 2,200 (0.71%) of roughly 310,000 compounds showed an effect of 50% or more. The effect is printed as a negative number. The list shows a part of the results.

molecular target: human ether-à-go-go-related gene (hERG) potassium channel (human, UniProt Q12809); assay: primary screen, population patch clamp on CHO cells stably expressing hERG
Sequence (Q12809 whole entry, looked up): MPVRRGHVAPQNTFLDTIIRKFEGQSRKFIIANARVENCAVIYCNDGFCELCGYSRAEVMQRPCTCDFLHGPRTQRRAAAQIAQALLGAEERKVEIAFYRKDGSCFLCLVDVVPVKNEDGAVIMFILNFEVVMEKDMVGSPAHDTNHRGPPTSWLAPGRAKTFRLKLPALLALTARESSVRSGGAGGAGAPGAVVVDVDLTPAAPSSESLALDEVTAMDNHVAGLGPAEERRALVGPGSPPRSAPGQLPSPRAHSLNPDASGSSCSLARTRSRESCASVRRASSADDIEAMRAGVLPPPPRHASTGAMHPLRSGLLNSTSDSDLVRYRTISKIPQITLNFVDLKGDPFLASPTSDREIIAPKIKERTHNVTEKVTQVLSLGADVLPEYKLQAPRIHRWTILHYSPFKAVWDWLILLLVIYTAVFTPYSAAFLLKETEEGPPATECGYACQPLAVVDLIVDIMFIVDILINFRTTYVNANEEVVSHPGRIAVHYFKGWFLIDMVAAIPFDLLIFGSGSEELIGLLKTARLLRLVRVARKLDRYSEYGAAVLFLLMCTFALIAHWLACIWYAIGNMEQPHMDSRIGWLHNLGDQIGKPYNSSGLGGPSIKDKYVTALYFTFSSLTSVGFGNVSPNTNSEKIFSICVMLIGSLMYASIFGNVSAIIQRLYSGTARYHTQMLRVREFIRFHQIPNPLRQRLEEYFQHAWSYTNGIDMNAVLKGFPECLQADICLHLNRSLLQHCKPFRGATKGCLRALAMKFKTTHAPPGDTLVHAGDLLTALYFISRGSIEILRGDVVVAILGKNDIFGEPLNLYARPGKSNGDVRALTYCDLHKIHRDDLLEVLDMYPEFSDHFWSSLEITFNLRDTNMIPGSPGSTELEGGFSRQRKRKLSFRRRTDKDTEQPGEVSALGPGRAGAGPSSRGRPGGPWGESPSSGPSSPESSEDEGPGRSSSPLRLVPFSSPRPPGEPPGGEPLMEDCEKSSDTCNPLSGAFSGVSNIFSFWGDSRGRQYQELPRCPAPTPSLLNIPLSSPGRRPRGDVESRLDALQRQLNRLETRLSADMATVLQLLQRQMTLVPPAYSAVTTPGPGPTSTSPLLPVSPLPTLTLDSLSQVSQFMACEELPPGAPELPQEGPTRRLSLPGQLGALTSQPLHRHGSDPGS

Row | Compound | hERG current change (%, negative = inhibition) at 1uM [%]
1 | CCOC(=O)c1ccc(NC(=S)N(CCCN2CCN(CC)CC2)Cc2ccco2)cc1 | -45.4
2 | CCn1c(SCC(=O)NNC(=O)c2ccc(OC)cc2)nnc1C(C)C | 12.1
3 | CCOC(=O)N1CCN(c2nc3ccc(C(=O)c4ccccc4)cc3n3cnnc23)CC1 | -3.26
4 | O=C(O)C12CC3CC(C1)CC(n1ncc(NCc4ccco4)c(Cl)c1=O)(C3)C2 | 6.89
5 | CCCC(=O)C1CCN(Cc2ccccc2)CC1 | 4.46
6 | O=C(Nc1ccnc(-c2ccncc2)n1)c1ccc(Cl)cc1 | 3.63
7 | Cc1sc2ncnc(SCC(=O)Nc3nc(-c4ccc(F)c(F)c4)cs3)c2c1C | 13.7
8 | CN(C(=O)CN1CCN(c2ccc([N+](=O)[O-])cn2)CC1)c1ccccc1 | -22.4
9 | O=C(c1ccccc1Nc1ccc(SC(F)F)cc1)N1CCCCCC1 | 5.63
10 | COC(=O)c1ccc(Cn2c(O)c(N=O)c3ccccc32)o1 | 7.56
11 | CCNc1nc(Oc2ccc(C(=O)OC)cc2)nc(N2CCOCC2)n1 | 5.93
12 | O=C1/C(=C\c2cccnc2)SC(=S)N1C1CCS(=O)(=O)C1 (stereo not shown) | -0.667
13 | CCn1c(/C=C/Nc2ccccc2)[n+](CC)c2ccc(C(=O)OCC(F)(F)F)cc21.[I-] | -90.5
14 | CC(=O)c1ccc(OCCCN2CCCCC2)cc1.O=C(O)C(=O)O | -7.59
15 | CCCc1nnc(-c2ccc(OC)cc2)o1 | 11.6
16 | O=C(NCCn1cccn1)C1CCC(=O)N(CCc2ccc(Cl)cc2)C1 (stereo not shown) | 10.4
17 | CC1Cc2ccccc2N1C(=O)Cn1c(=O)oc2cc(S(=O)(=O)NC3CCCC3)ccc21 (stereo not shown) | 4.85
18 | NC(=O)N/N=C/c1ccc(OCc2cccc(Cl)c2)cc1 | 11.6
19 | O=[N+]([O-])c1ccc(N2CCOCC2)cc1NC(c1ccccc1)c1ccccc1 | 14.9
20 | CCCOc1ccc(N2C(=O)CC(N3CCC(O)(c4cccc(C(F)(F)F)c4)CC3)C2=O)cc1 (stereo not shown) | 7.56
21 | O=C1CCc2ccccc2N1Cc1ccccc1 | 9.52
22 | Cc1cc(SCC(=O)OCC(=O)N(C)c2ccccc2)nc2ccccc12 | -7.23

Row | Compound | hERG current change (%, negative = inhibition) at 1uM [%]
23 | Cc1cccc(N2CCN(C(=O)c3cccs3)CC2)c1C | 3.85
24 | O=C(CCc1ccccc1)NCC(c1ccco1)N1CCc2ccccc21 (stereo not shown) | -13.8
25 | Cc1ccc(NC(=O)Cn2cnc3ccccc32)cc1C | 6.29
26 | C#CCOC(=O)C(NC(=O)c1ccccc1)=C(C)C | 7.09
27 | O=C(/C=C/c1ccc2c(c1)OCO2)Nc1nc2ccc(F)cc2s1 | 16.3
28 | CCCn1c(SCC(=O)c2c[nH]c3ccccc23)nnc1-c1ccncc1 | 4.77
29 | CC(C)=CCc1c(O)cc(O)c2c(=O)c3c(CC=C(C)C)c(O)ccc3oc12 | 15.1
30 | COc1ccc2nc(NC(=O)c3ccccc3F)sc2c1 | 5.5
31 | CCOC(=O)C(=NCCCN(C)C)NNc1ccc(Br)cc1 | 2.69
32 | Cl.O=C1c2cccc3cccc(c23)C(=O)N1CC1CCN(CC(O)COc2ccc3ccccc3c2)CC1 (stereo not shown) | -14.5
33 | COc1ccc(C(C(=O)NC2CCCC2)N(C(=O)c2ccco2)c2cc3c(cc2C(C)=O)OCO3)cc1OC (stereo not shown) | 14.7
34 | COC(=O)c1ccc(Cl)c(NC(=O)CSc2nnc(-c3ccncc3)o2)c1 | 9.92
35 | CSc1ccccc1NC(=O)COC(=O)c1ccccc1O | 4.55
36 | O=C(CSc1nnc(Cc2cccs2)n1C1CCCCC1)N1CCCc2ccccc21 | 24.3
37 | COc1cc(OC)cc(-c2c(C#Cc3ccsc3)c3cc(-c4cnc(OC)nc4)ccc3n2C)c1 | 11.4
38 | CC(C)c1ccc(N(CC(=O)NCc2ccc(F)cc2)C(=O)c2snc(C(N)=O)c2N)cc1 | 5.83
39 | COc1ccc(CNC(=O)COc2ccc(S(=O)(=O)NC(C)C)cc2)cc1 | 13.5
40 | CCC(C(=O)NC1CCCC1)N(C(=O)Cn1nnc(-c2ccc(C)o2)n1)c1cccc(O)c1 (stereo not shown) | 12.7
41 | COc1ccc(/C(N)=N/OC(=O)CC2CCCCC2)cc1OC | 15.7
42 | O=C1c2ccccc2NC(c2ccc(Br)o2)N1O (stereo not shown) | 7.93
43 | Cc1cc(C)cc(C(=O)N2CC(C)SC2=Nc2cccc(S(=O)(=O)N(C)C)c2)c1 (stereo not shown) | -11.8
